Columns and labels:
Set-up in all cases: key: +++, considerable activity; ++, moderate activity; −−−, no activity
[1] = test system: Saccharomyces cerevisiae W303C; settings: disk diffusion, PDA-CA medium
Excerpt: (§1) TGI, Escherichia coli B, Staphylococcus aureus ATCC 6538, Micrococcus luteus, and Candida albicans ATCC 10231 were obtained from the American Type Culture Collection (Manassas, Va., USA). Fusarium graminearum strain B-4-5A was obtained from the Small Grain Pathology Program, University of Minnesota, Minneapolis Minn., USA. Saccharomyces cerevisiae W303C and Rhodotorula pilimanae were obtained from Dr. J. Y. Takemoto, Utah State University, Logan, Utah, USA). Aspergillus flavus, Fusarium oxysporum, Fusarium culmorum, Microdochium nivale, Mucor haemalis, Ulocladium spp., Penicillium spp., Rhizopus stolonifer and Cladosporium cladosporioides were obtained from Dr. B. Kropp (Utah State University, Logan, Utah, USA) and Aspergillus niger was obtained from Dr. C. Nischwitz (Utah State University, Logan, Utah, USA). Filamentous fungi and yeasts were cultivated at 35° C. in PDB-CA. […]
(§2) In vitro antifungal activities were determined by the general methods of the Clinical and Laboratory Standards Institute (NCCLS. Reference method for broth dilution antifungal susceptibility testing of filamentous fungi. Approved standard M38-A (National Committee for Clinical Laboratory Standards, Wayne, Pa., 2002)). […] The microtiter plates were incubated at 28° C. and visually inspected and scored every 24 h. […]

Fusarium oxysporum = experiment: Disk diffusion growth inhibitory assay; settings: PDA-CA medium
Excerpt: (§3) TGI, Escherichia coli B, Staphylococcus aureus ATCC 6538, Micrococcus luteus, and Candida albicans ATCC 10231 were obtained from the American Type Culture Collection (Manassas, Va., USA). Fusarium graminearum strain B-4-5A was obtained from the Small Grain Pathology Program, University of Minnesota, Minneapolis Minn., USA. Saccharomyces cerevisiae W303C and Rhodotorula pilimanae were obtained from Dr. J. Y. Takemoto, Utah State University, Logan, Utah, USA). Aspergillus flavus, Fusarium oxysporum, Fusarium culmorum, Microdochium nivale, Mucor haemalis, Ulocladium spp., Penicillium spp., Rhizopus stolonifer and Cladosporium cladosporioides were obtained from Dr. B. Kropp (Utah State University, Logan, Utah, USA) and Aspergillus niger was obtained from Dr. C. Nischwitz (Utah State University, Logan, Utah, USA). Filamentous fungi and yeasts were cultivated at 35° C. in PDB-CA. Bacterial strains were grown at 37° C. for 24 h on Luria-Bertani medium (14) except for Staphylococcus aureus ATCC6538 which was grown on Mueller-Hinton medium (Difco, B D, Franklin Lakes, N.J., USA).
(§4) In vitro antifungal activities were determined by the general methods of the Clinical and Laboratory Standards Institute (NCCLS. Reference method for broth dilution antifungal susceptibility testing of filamentous fungi. Approved standard M38-A (National Committee for Clinical Laboratory Standards, Wayne, Pa., 2002)). For MIC tests, Fusarium graminearum, Rhodotorula pilimanae, and Aspergillus flavus were grown in PDB-CA medium for 48 h at 28° C. with aerobic shaking For disk diffusion growth inhibitory assays, various fungal species were inoculated in the middle of PDA-CA medium plate surfaces. Sterilized paper disks (0.5 cm diameter) were placed on the inoculated agar medium surfaces equidistant and around the fungal inoculum. Eight μL aliquots of test solutions (10 mg mL^−1) were applied to the disks, and the plates were incubated for 24 to 48 h at 28° C. before examination of the inhibition patterns seen as cleared zones of growth inhibition surrounding the disks. Assays for determination of MICs were conducted in sterile, flat-bottomed 96-well microtiter plates (Corning Costar, Corning, N.Y.) in the range of 500 to 1 μg mL^−1. Stock solutions of analogs were prepared at concentrations of 2 mg mL^−1 in water. In microtiter plates, 50 μL aliquots of stock solutions were added in the third column and 10 consecutive two-fold serial dilutions were made in each row with sterile distilled water. Then, 40 μL of PDB-CA medium and 10 μL aliquots of a 100,000 macroconidia per mL fungal suspension were added to each well. Negative (90 μL of growth medium and 10 μL of water) and positive (90 μL of growth medium and 10 μL of culture or macroconidia) controls were placed in separate wells. The microtiter plates were incubated at 28° C. and visually inspected and scored every 24 h. Microbroth dilution assays in a single MIC test were replicated three times, and each test repeated at least twice.

Mucor haemalis = experiment: Disk diffusion growth inhibitory assay; settings: PDA-CA medium
Excerpt: as §3, §4

[2] = test system: Candida albicans ATCC 10231; experiment: Disk diffusion growth inhibitory assay; settings: PDA-CA medium
Excerpt: as §3, §4

Ulocladium spp. = experiment: Disk diffusion growth inhibitory assay; settings: PDA-CA medium
Excerpt: as §3, §4

Rhizopus stolonifer = experiment: Disk diffusion growth inhibitory assay; settings: PDA-CA medium
Excerpt: as §3, §4

Rhodotorula pilimanae = experiment: Disk diffusion growth inhibitory assay; settings: Rhodotorula piliminae, PDA-CA medium
Excerpt: as §3, §4

Escherichia coli TG1 = settings: disk diffusion, PDA-CA medium
Excerpt: as §1, §2

[3] = test system: Staphylococcus aureus ATCC 6538; experiment: Disk diffusion growth inhibitory assay; settings: PDA-CA medium
Excerpt: as §3, §4

Measured: Relative Activity (zone of inhibition diameter)

NCC1O[C@H](OC2C(N)CC(N)[C@@H](OC3O[C@H](CO)C(O)[C@@H](N)[C@H]3O)[C@H]2O)C(O)[C@@H](O)[C@@H]1O (stereo partly drawn) [kanamycin A]
not listed: Escherichia coli TG1 | [3]
−−−: all other assays above

CCCCCCCCS(=O)(=O)OCC1OC(OC2C(N)CC(N)C(OC3OC(CN)C(O)C(O)C3O)C2O)C(O)C(N)C1O (stereo not drawn) [K20, 6″-O-octanesulfonylkanamycin A]
−−−: Escherichia coli TG1 | [3]

From patent publication US9669044B2, “Aminoglycoside and azole compositions and methods” (Utah State University, priority 2010, dated 2017)
